Source: PMC4336329 (PLoS ONE, 2015)
Among all 310,000 compounds or so, about 14,000 (4.5%) showed an effect of 50% or more. The effect is printed as a negative number. This is one part of the list.

molecular target: human ether-à-go-go-related gene (hERG) potassium channel (human, UniProt Q12809); assay: primary screen, population patch clamp on CHO cells stably expressing hERG
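Further: peak tail current of the secondary pulse compared with the same well before compound.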

human ether-à-go-go-related gene (hERG) potassium channel, sequence (Q12809 whole entry, looked up): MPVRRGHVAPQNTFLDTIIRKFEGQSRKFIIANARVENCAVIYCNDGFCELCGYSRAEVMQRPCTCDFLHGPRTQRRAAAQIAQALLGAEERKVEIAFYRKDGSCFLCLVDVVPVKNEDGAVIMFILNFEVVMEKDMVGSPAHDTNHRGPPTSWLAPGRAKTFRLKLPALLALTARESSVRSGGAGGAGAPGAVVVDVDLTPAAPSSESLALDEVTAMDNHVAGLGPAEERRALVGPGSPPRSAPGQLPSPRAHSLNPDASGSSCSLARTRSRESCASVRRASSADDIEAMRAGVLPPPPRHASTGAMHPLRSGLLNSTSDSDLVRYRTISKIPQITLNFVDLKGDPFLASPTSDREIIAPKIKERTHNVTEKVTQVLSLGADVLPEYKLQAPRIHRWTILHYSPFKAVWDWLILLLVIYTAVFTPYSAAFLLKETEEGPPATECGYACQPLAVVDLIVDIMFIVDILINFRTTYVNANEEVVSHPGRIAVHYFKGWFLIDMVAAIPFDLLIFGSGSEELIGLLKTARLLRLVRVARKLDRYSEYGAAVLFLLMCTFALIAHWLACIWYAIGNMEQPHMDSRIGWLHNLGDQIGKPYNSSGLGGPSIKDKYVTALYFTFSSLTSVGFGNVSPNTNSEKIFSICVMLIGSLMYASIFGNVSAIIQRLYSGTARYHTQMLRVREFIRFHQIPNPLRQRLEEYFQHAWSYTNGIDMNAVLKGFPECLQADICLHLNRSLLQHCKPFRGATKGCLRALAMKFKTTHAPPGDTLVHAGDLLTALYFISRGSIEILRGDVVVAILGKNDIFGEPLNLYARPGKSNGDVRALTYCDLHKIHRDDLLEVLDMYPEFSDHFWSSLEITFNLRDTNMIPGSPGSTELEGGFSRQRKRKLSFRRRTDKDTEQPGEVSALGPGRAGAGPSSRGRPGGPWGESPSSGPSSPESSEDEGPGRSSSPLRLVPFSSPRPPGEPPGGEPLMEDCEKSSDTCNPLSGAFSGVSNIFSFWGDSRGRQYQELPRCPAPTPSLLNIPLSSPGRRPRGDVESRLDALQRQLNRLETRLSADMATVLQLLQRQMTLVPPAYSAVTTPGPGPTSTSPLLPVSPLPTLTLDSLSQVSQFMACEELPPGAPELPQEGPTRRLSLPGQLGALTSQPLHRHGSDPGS

Going from C=CCn1nc2n(c1=O)-c1ccccc1SC2 to O=C(NCc1ccccc1Cl)c1cnc2n(c1=O)CCS2, the “hERG current change (%, negative = inhibition) at 10uM” value rises from -2.47% to -0.561%.

Compared with O=S(=O)(c1ccc(Cl)cc1)N1CCCN(c2nc3ccc(Cl)cc3s2)CC1, O=[N+]([O-])c1ccc2nc(N3CCCC3)sc2c1 is higher in “hERG current change (%, negative = inhibition) at 10uM” value: 11.8% for the first, 15.8% for the second.

First: Cc1cccn2c(=O)c3cc(S(=O)(=O)c4ccccc4)c(=N)n(CC4CCCO4)c3nc12 (stereo not drawn)
Second: Cc1cc(NC(=O)c2ccccc2)nc2c1c(=O)oc1ccccc12
The “hERG current change (%, negative = inhibition) at 10uM” value of the first is lower: -15.3% for the first, 30.6% for the second.

First: Brc1ccc(/C=N/Nc2nncc(-c3ccccc3)n2)o1
Second: O=[N+]([O-])c1ccc(/C=N/Nc2cc(Cl)nc(-c3ccccc3)n2)cc1
The “hERG current change (%, negative = inhibition) at 10uM” value of the first is higher: 10.6% for the first, 2.34% for the second.

First: Cc1ccc(SCC(=O)O/N=C(\N)c2ccc([N+](=O)[O-])cc2)cc1
Second: Cc1ccc(COC(=O)NCc2cccnc2)cc1
The “hERG current change (%, negative = inhibition) at 10uM” value of the first is lower: -36.3% for the first, 22% for the second.

First: C/C(=N\NC(=O)CNC(=O)c1ccc(F)cc1)c1ccco1
Second: O=C(Nc1ccc(N2CCN(C(=O)c3ccco3)CC2)cc1)c1ccc(F)cc1
The “hERG current change (%, negative = inhibition) at 10uM” value of the first is higher: 3.59% for the first, -46.8% for the second.

Compared with Fc1ccc(-c2nc3ccccc3[nH]2)cc1, CC(=O)c1c(-c2ccccc2)[nH]c2ccccc12 is lower in “hERG current change (%, negative = inhibition) at 10uM” value: 20.6% for the first, 15% for the second.

Compared with COc1ccc2[nH]cc(CCNC(=O)Cc3ccc(Br)cc3)c2c1, Cc1cc(=O)oc2cc(OC(C)C(=O)NCCc3ccc(S(N)(=O)=O)cc3)ccc12 (stereo not drawn) is higher in “hERG current change (%, negative = inhibition) at 10uM” value: -10% for the first, 13.5% for the second.

Compared with Cc1ccc(-c2onc3ccc(Cl)cc23)cc1, Cc1nc2ccc(Cl)cc2c(-c2ccccc2)c1C(=O)N(C)C.Cl is lower in “hERG current change (%, negative = inhibition) at 10uM” value: -0.992% for the first, -5.56% for the second.

Compared with O=C1NC(c2ccc(Cl)cc2)Oc2ccccc21 (stereo not drawn), CS(=O)(=O)N(CC(=O)Nc1ccccc1)Cc1ccc(Cl)cc1 is lower in “hERG current change (%, negative = inhibition) at 10uM” value: 18% for the first, -23.9% for the second.

Compared with COc1ccc(OCCCON2C(=O)c3ccccc3C2=O)cc1, CCCCOc1ccc(CNC(=S)N/N=C/c2ccc(OC)c(OC)c2)cc1 is higher in “hERG current change (%, negative = inhibition) at 10uM” value: -38.8% for the first, 16.7% for the second.

Compared with Cc1ccc(/C=C/C(=O)OCC(=O)NCCN2C(=O)CSC2=O)o1, Cc1cccc(CN2CCN(CC(=O)NCCCN3CCCC3=O)C2=O)c1 is lower in “hERG current change (%, negative = inhibition) at 10uM” value: 29% for the first, 7% for the second.

Compared with O=C(NCC#CCOCc1ccccc1)c1ccccc1, CCN(CC)CC(=O)NN=C(c1ccccc1)c1ccccc1 is lower in “hERG current change (%, negative = inhibition) at 10uM” value: -6.3% for the first, -77.6% for the second.

First: O=C(CNc1ccc2ccccc2c1)N/N=C/c1cc2ccccc2nc1Cl
Second: Cc1ccc(S(=O)(=O)N(CC(=O)N/N=C/c2cccc3c2OCCO3)c2ccccc2F)cc1
The “hERG current change (%, negative = inhibition) at 10uM” value of the first is higher: 3.29% for the first, -6.02% for the second.

Going from CCCOc1ncnc2c1sc1nc3c(cc12)COC(C)(C)C3 to CC(=O)Cn1cnc2scc(-c3ccc(C)c(C)c3)c2c1=O, the “hERG current change (%, negative = inhibition) at 10uM” value falls from 13.7% to 13%.

Going from O=C(CSc1nncs1)Nc1ccc(N2CCCCC2)cc1 to O=S(=O)(c1ccc(NC(=S)NCc2ccco2)cc1)N1CCCCC1, the “hERG current change (%, negative = inhibition) at 10uM” value falls from 5.93% to 4.65%.

Compared with COc1ccccc1CN1CC(C(=O)NCCSc2nnnn2C)CCC1=O (stereo not drawn), COc1ccccc1Cn1c(C)nnc1-c1cnn(C)c1N is lower in “hERG current change (%, negative = inhibition) at 10uM” value: 20% for the first, -0.622% for the second.

Compared with C/C(=N\Nc1ccc(S(=O)(=O)Nc2ccc(Cl)cc2)cc1[N+](=O)[O-])c1ccc(N2CCOCC2)cc1, O=C(NC1CCCC1)c1ccc(S(=O)(=O)N2CCOCC2)cc1 is lower in “hERG current change (%, negative = inhibition) at 10uM” value: 3.59% for the first, 2.34% for the second.

First: Cc1cccc2c1NC(=O)C21OCC(CO)([N+](=O)[O-])CO1 (stereo not drawn)
Second: CC1=NCCN1S(=O)(=O)c1cc([N+](=O)[O-])ccc1Cl
The “hERG current change (%, negative = inhibition) at 10uM” value of the first is higher: 12.3% for the first, 4.1% for the second.

Going from COc1ccc(C(C)(C)C)cc1NC(=S)NCCN1CCOCC1 to COc1ccccc1NS(=O)(=O)c1ccc(C)c(C(=O)NCC2(N(C)C)CCCCC2)c1, the “hERG current change (%, negative = inhibition) at 10uM” value falls from 1.38% to -42.9%.

Going from O=C(CN1C(=O)c2ccccc2C1=O)Nc1ccccc1C(=O)NC1CCCCC1 to Cc1ccccc1C(=O)N(Cc1nc2ccccc2c(=O)[nH]1)C1CCCC1, the “hERG current change (%, negative = inhibition) at 10uM” value falls from 1.72% to -1.81%.

First: CSc1ccc(/C=N/NC(=O)CN2CCN(Cc3ccccc3Cl)CC2)cc1
Second: O=C(CN1CCCC1)Nc1ccc(Oc2ccc(NC(=O)CN3CCCC3)cc2)cc1
The “hERG current change (%, negative = inhibition) at 10uM” value of the first is lower: -37.5% for the first, 17.3% for the second.

Going from CC(C)c1cccc(C(C)C)c1OCCCCN1CCCC1 to Cl.O=C(OCCN1CCCCC1)c1cc2ccccc2o1, the “hERG current change (%, negative = inhibition) at 10uM” value rises from -22.7% to -13.5%.

Going from Cc1cc(C)cc(NC(=O)Cn2c(=O)oc3cc(S(=O)(=O)N4CCC(C)CC4)ccc32)c1 to Cc1ccc(NC(=O)CN2C(=O)NC3(CCCCCC3)C2=O)cc1Cl, the “hERG current change (%, negative = inhibition) at 10uM” value rises from -0.611% to 13.4%.

Going from COc1ccc(-c2c(NC(=O)c3ccco3)oc3ccccc3c2=O)cc1OC to COc1ccc(NC(=O)CC2Oc3ccccc3NC2=O)c(OC)c1 (stereo not drawn), the “hERG current change (%, negative = inhibition) at 10uM” value rises from 16.6% to 24.4%.

Going from CC(SC(=S)N(C)Cc1cccs1)C(=O)O (stereo not drawn) to O=C(NCCCn1ccnc1)/C(=C/c1ccco1)NC(=O)c1cccs1, the “hERG current change (%, negative = inhibition) at 10uM” value falls from 10.7% to -53.2%.

Compared with Cl.OCc1ccccc1CNCc1ccccc1, Cl.N=c1sccn1CC(=O)Nc1ccccc1Cc1ccccc1 is lower in “hERG current change (%, negative = inhibition) at 10uM” value: 3.19% for the first, -17.3% for the second.

Compared with O=C(N/N=C/c1cn(-c2ccccc2)nc1-c1ccc2c(c1)OCCO2)c1ccncc1, Cc1ccc(NC(=O)CSCC(=O)N2c3ccccc3CCc3ccccc32)cc1 is lower in “hERG current change (%, negative = inhibition) at 10uM” value: 15.2% for the first, 7.66% for the second.

Compared with CC(=O)C1C(c2ccc(OC(F)F)cc2)NC(=O)NC1(O)C(F)(F)F (stereo not drawn), CC1OC(Nc2ccc(OC(F)(F)F)cc2)C(O)C(O)C1O (stereo not drawn) is higher in “hERG current change (%, negative = inhibition) at 10uM” value: -7.21% for the first, 0.769% for the second.

First: CS(=O)(=O)NCCSCc1ccccc1
Second: Cc1occc1C(=O)Nc1ccccc1C(=O)O
The “hERG current change (%, negative = inhibition) at 10uM” value of the first is lower: -13.2% for the first, 2.37% for the second.

First: CN(C)Cc1ccc(F)cc1Sc1ccc(Cl)cc1Cl.Cl
Second: Fc1ccc2c(c1)Sc1ccc(Cl)cc1CC2N1CCN(CCC2OCCO2)CC1 (stereo not drawn)
The “hERG current change (%, negative = inhibition) at 10uM” value of the first is higher: 10.3% for the first, -8.68% for the second.

Compared with O=[N+]([O-])C(=C1SCCS1)C(=C(Cl)Cl)N1CCCCC1, CC(=O)NS(=O)(=O)c1ccc(N=NN2CCCCC2)cc1 is lower in “hERG current change (%, negative = inhibition) at 10uM” value: 15.5% for the first, -1.66% for the second.

Going from N#CCC(=O)N/N=C/c1ccc(OC2CSC2)cc1 to O=C(N/N=C/C1CC2CCC1C2)c1ccc2c(c1)OCO2 (stereo not drawn), the “hERG current change (%, negative = inhibition) at 10uM” value falls from 36.2% to -2.35%.

Compared with Cc1cc(C)c2cc(C(c3nnnn3CC3CCCO3)N3CCN4CCCC4C3)c(=O)[nH]c2c1 (stereo not drawn), O=C1CC(N2CCN(C(c3ccccc3)c3ccccc3)CC2)C(=O)N1Cc1ccc(N2CCCC2=O)cc1 (stereo not drawn) is higher in “hERG current change (%, negative = inhibition) at 10uM” value: -14.7% for the first, -12.3% for the second.

Going from Cc1ccc(C2=NCCNC2=O)c(C)c1 to Cc1ccc(-n2c(SCC(=O)NCc3ccco3)nnc2-c2cccnc2)c(C)c1, the “hERG current change (%, negative = inhibition) at 10uM” value falls from 0.813% to -34.4%.

First: CCN(CC)C(=O)CSc1nnc([C@H](CCSC)NC(=O)OC(C)(C)C)o1
Second: Cc1oc(CC(C)C)cc1C(=O)NCCCC(=O)O
The “hERG current change (%, negative = inhibition) at 10uM” value of the first is lower: -8.26% for the first, 13.6% for the second.

Compared with Cc1ccccc1NC(=S)NCCC(c1ccccc1)c1ccccc1, Cc1cc(=O)n2c(n1)NC(=NCc1ccccc1)NC2c1ccccc1 (stereo not drawn) is higher in “hERG current change (%, negative = inhibition) at 10uM” value: 2.76% for the first, 10.4% for the second.

Going from CC(C)(C)c1ccc(-c2nnc3sc(-c4ccncc4)nn23)cc1 to COc1ccc(S(=O)(=O)NC(C)(C)C)cc1-c1nnc2c3ccccc3c(C)nn12, the “hERG current change (%, negative = inhibition) at 10uM” value rises from -10.9% to -5.05%.

Compared with COC(=O)c1ccccc1S(=O)(=O)NNC(=O)c1ccccc1-n1cccc1, O=C(CCc1ccccc1)C(=O)N1CCCC(C(=O)c2cccc(Cl)c2)C1 (stereo not drawn) is lower in “hERG current change (%, negative = inhibition) at 10uM” value: 18.9% for the first, -18.2% for the second.

Going from O=C(c1ccc(Cl)c(Cl)c1)N(Cc1ccco1)c1ccc(O)cc1 to O=C(CN(C(=O)c1csnn1)c1ccc(Cl)cc1)NCc1ccc2c(c1)OCO2, the “hERG current change (%, negative = inhibition) at 10uM” value rises from -17% to 24.3%.

Compared with O=C(NCc1cccnc1)C1CCC(c2ccc(Cl)cc2)CC1 (stereo not drawn), COc1ccc(N2CCN(C(CNC(=O)C(=O)NCc3ccncc3)c3ccco3)CC2)cc1 (stereo not drawn) is higher in “hERG current change (%, negative = inhibition) at 10uM” value: -15.9% for the first, -6.1% for the second.

Going from CCOC(=O)CSc1[nH]c(=O)cc(C)c1C#N to CCOC(=O)c1cnc2c(C)c(-c3ccccc3)[nH]n2c1=O, the “hERG current change (%, negative = inhibition) at 10uM” value rises from 10.1% to 14.5%.

Compared with Cc1ccccc1CCNC(=O)c1ccc(Cl)c(S(=O)(=O)N2CC(C)OC(C)C2)c1 (stereo not drawn), CCCN(CCC)S(=O)(=O)c1ccc(C(=O)Nc2nnc(-c3cccc(OC)c3)o2)cc1 is higher in “hERG current change (%, negative = inhibition) at 10uM” value: -10.7% for the first, 4.14% for the second.

Going from CC(C)C[C@H]1CN=C(Nc2ccccc2)N1CC(C)C to NC(=O)N1OCC2COc3ccc4ccccc4c3C21 (stereo not drawn), the “hERG current change (%, negative = inhibition) at 10uM” value falls from -3.04% to -26.9%.

Going from Cc1coc2c1c(C)cc1oc(=O)c(CC(=O)NCCCN3CCCC3=O)c(C)c12 to CSCC(=O)NC1CCCc2c1cnn2-c1ccc(C)c(C)c1 (stereo not drawn), the “hERG current change (%, negative = inhibition) at 10uM” value falls from -7.63% to -28%.
